Experimental data taken from patent publication US20260092110A1 (Kyowa Kirin, published 2026).

T1: human MOG (hMOG) expressed on HEK293, Expi293F or L929 cells (human, UniProt Q16653 30-247)
T1 construct: also called hMOG/HEK293; hMOG/HEK293F
T1 chain: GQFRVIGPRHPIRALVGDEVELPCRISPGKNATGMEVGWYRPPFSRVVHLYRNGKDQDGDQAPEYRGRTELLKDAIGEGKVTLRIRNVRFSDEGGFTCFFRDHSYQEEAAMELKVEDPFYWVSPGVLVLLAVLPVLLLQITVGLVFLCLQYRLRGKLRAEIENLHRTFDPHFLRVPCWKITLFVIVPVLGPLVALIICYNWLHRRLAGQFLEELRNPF

B1: MOG329 scFv-hG4PE(R409K) antibody (Fc fusion)
chain: QVQLVESGGGLVQPGGSLRLSCAASGFAFRNYAMNWVRQAPGKGLEWVSAISGSGGSTYYADSVKGRFTISRDNSKNTLYLQMNSLRAEDTAVYYCARDYGGISPFDYWGQGTLVTVSSGGGGSGGRASGGGGSDIQLTQSPSSLSASVGDRVTITCRASQGISSALAWYQQKPGKAPKLLIYDASSLESGVPSRFSGSGSGTDFTLTISSLQPEDFATYYCQQFNSYPHTFGQGTKVDIK[human IgG4 Fc with S228P L235E R409K (EU numbers) omitted]
notes: scFv-Fc
B2: MOG456 scFv-hG4PE(R409K) antibody (Fc fusion)
chain: EVQLVESGGGLVKPGGSLRLSCAASGFTFSSYSMHWVRQAPGKGLEWVSSIGSRSRYIYYADSVKGRFTISRDNAKNSLYLQMNSLRAEDTAVYYCAKGYYDILTGSLFDYWGQGTLVTVSSGGGGSGGRASGGGGSDIVMTQSPSSLSASVGDRVTITCRASQGISSALAWYQQKPGKAPKLLIYDASSLESGVPSRFSGSGSGTDFTLTISSLQPEDFATYYCQQFNSYPWTFGQGTKVEIK[human IgG4 Fc with S228P L235E R409K (EU numbers) omitted]
notes: scFv-Fc
B3: MOG446 scFv-hG4PE(R409K) antibody (Fc fusion)
chain: QVQLVESGGGVVRPGGSLRLSCAASGFTFDDYGMSWVRQAPGKGLEWVSNINWNGDSTGYVDSVKGRFTISRDNAKNSLYLQMNSLRAEDTALYYCARARTYYYVSGRYYFDYWGQGTLVTVSSGGGGSGGRASGGGGSDIQMTQSPSSLSASVGDRVTITCRASQGISSALAWYQQKPGKAPKLLIYDASSLESGVPSRFSGSGSGTDFTLTISSLQPEDFATYYCQQFNSYPLTFGGGTKVEIK[human IgG4 Fc with S228P L235E R409K (EU numbers) omitted]
notes: scFv-Fc
B4: MOG303 scFv-hG4PE(R409K) antibody (Fc fusion)
scFv-Fc: [about 100 residues omitted]GGYDILTGYFFDYWGQGTTVTVSSGGGGSGGRASGGGGSAIQMTQSPSSLSASVGDRVTITCRASQGISSALAWYQQKPGKAPKLLIYDASSLESGVPSRFSGSGSGTDFTLTISSLQPEDFATYYCQQFNSYPFTFGPGTRLEIK[human IgG4 Fc with S228P L235E R409K (EU numbers) omitted]
notes: scFv-Fc
B5: MOG301 scFv-hG4PE(R409K) antibody (Fc fusion)
scFv-Fc: QVQLVQSGAEVKKPGASVKVSCKASGYSFTSYGINWVRQAPGQGLEWMGWISAYNGYTNYAQKLQGRVTMTRDTSTRTAYMELRSLRSDDTAVYYCAREYDILTGYSDAFDIWGQGTLVTVSSGGGGSGGRASGGGGS[about 350 residues with a human IgG4 Fc omitted]
notes: scFv-Fc
B6: MOG428 (scFv phage clone similar to MOG301 antibody) (scFv)
scFv: EVQLVQSGAEVKKPGASVKVSCKASGYSFNSYGINWVRQAPGQGLEWMGWISAYTGKTSYAQKVQGRVTMTTDRSTSTAYMELRSLRSDDTAMYYCAREYDILTGYSDAFDTWGQGTMVTVSSGGGGSGGRASGGGGS[about 100 residues omitted]
B7: MOG319 (scFv phage clone similar to MOG310 antibody) (scFv)
scFv: QVQLVQSGAEVKKPGSSVKVSCKASGGTFSRYAISWVRQAPGQGLEWMGGIIPMFSTANYAQKFQGRVTITADESTSTAYMELSSLRSDDTAVYYCARDWAVAGMGFNYWGQGTLVTVSSGGGGSGGRASGGGGS[about 100 residues omitted]
B8: MOG478 (scFv phage clone similar to MOG310 antibody) (scFv)
scFv: EVQLVQSGAEVKKPGSSVKVSCKASGGTFSRYAISWVRQAPGQGLEWMGGIIPMFATANYAQKFQARVTITADETTSTAYMELSSLRSEDTGVYYCARDWAVAAMGFAHWGQGTLVTVSSGGGGSGGRASGGGGS[about 100 residues omitted]
B9: MOG359 (scFv phage clone similar to MOG310 antibody) (scFv)
scFv: EVQLVQSGAEVKKPGSSVKVSCKASGGTFSRYAISWVRQAPGQGLEWMGGIIPMFNTANYAQKFQGRVTITADESTSTAYMELSSLRSEDTAVYYCARDWAVAGMGFNYWGQGTLVTVSSGGGGSGGRASGGGGS[about 100 residues omitted]
B10: MOG320 (scFv phage clone similar to MOG310 antibody) (scFv)
scFv: QVQLVQSGAEVKKPGSSVKVSCKASGGTFSRYAINWVRQAPGQGLEWMGGIIPMFSTVNYAQKFQGRVTITADESTSTAYMELSSLRSEDTAVYYCARDWAVAGMGFDYWGQGTLVTVSSGGGGSGGRASGGGGS[about 100 residues omitted]FGPGTKVDIK
B11: MOG313 (scFv phage clone similar to MOG303 antibody) (scFv)
scFv: [about 100 residues omitted]AYYDILTGSLFDSWGQGTLVTVSSGGGGSGGRASGGGGSDIVMTQSPSSLSASVGDRVTITCRASQGISSALAWYQQKPGKAPKLLIYDASSLESGVPSRFSGSGSGTDFTLTISSLQPEDFATYYCQQFNSYPLTFGGGTKVEIK

What was measured:
[1] = biological target: extracellular domain protein of human MOG to which GST is added at the C-terminus (hMOG-GST) (human); assay: SPR, antibody captured, hMOG-GST analyte
Procedure: The antibodies were immobilized on CM5 sensor chips using a Human antibody Capture kit, and the binding abilities were evaluated using rMOG-GST produced in Example 4 as an analyte. The obtained sensorgrams were analyzed with BIA evaluation software, and the dissociation constants (KD values) were thus calculated.
The results of evaluation of the affinities to human MOG are shown in Table 14, and the results of evaluation of the affinities to mouse MOG are shown in Table 15.

[2] = biological target: extracellular domain protein of human MOG to which FLAG-Fc is added at the C-terminus (hMOG-FLAG-Fc) (human); assay: phage ELISA
[3] = biological target: T1, human MOG (hMOG) expressed on HEK293, …; assay: phage clone on hMOG/Expi293F cells

| Binder | Kd [1] [nM] | koff [1] [s⁻¹] | kon [1] [M⁻¹ s⁻¹] | binding result [2] | binding result [3] |
| --- | --- | --- | --- | --- | --- |
| B1 | 0.13 | 0.00021 | 1.6e+06 | – | – |
| B2 | 0.25 | 0.00026 | 1e+06 | – | – |
| B3 | 0.87 | 0.00017 | 190000 | – | – |
| B4 | 0.17 | 0.00016 | 910000 | – | – |
| B5 | 0.18 | 0.00018 | 1.1e+06 | – | – |
| B6 | – | – | – | binds | binds |
| B7 | – | – | – | binds | binds |
| B8 | – | – | – | binds | binds |
| B9 | – | – | – | binds | binds |
| B10 | – | – | – | binds | binds |
| B11 | – | – | – | binds | binds |
